Screen size: about 410,000 compounds; about 6,400 (1.6%) were called active. The shares of active, inactive and inconclusive entries below differ from those in the screen. Calls come from the whole dose curve; as a rule, active = well fitted inhibition curve with a large enough effect; inconclusive = small, poorly fitted or top-dose-only effect; inactive = no such curve, though single readings can be large or run the other way. A potency beside an inconclusive call is a rough fit, not a confirmed value.
Biological target: Glucagon-like peptide 1 receptor (Homo sapiens) (UniProt P43220)
UniProt P43220, sequence (P43220 whole entry, looked up): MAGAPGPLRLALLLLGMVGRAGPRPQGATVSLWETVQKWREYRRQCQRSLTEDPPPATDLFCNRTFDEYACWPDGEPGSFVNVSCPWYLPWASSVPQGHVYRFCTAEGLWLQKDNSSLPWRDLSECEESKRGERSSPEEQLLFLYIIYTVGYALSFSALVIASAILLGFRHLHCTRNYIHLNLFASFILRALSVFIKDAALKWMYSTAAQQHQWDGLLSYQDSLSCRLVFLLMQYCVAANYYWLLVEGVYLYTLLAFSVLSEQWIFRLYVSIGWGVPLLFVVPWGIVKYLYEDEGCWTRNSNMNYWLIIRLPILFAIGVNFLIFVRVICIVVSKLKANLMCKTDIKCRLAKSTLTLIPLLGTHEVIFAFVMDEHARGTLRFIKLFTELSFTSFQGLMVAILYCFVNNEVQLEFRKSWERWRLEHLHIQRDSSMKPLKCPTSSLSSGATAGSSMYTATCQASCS
Assay: qHTS of GLP-1 Receptor Inverse Agonists (Inhibition Mode); note: nearly all actives have a fitted effect of over 55% in size
Details: HEK293 GLP-1R CRE-luciferase, luminescence, 24 h, GLP-1R form is constitutively active; series mostly up to 38.3 µM
In short: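 Cells are plated, allowed 12 hours at 37 deg C, then treated with compounds for 24 hr before luciferase detection reagent is added and luminescence is read after 12 min at room temperature. The HEK293 line carries constitutively active GLP-1R with a cAMP-responsive reporter.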
Potency is the fitted concentration of half-maximal effect; tags give direction and shape of the fitted curve.

Potency, inactive:
Cc1ccc(C)c(Cn2c(=O)n(CCCC(=O)NCCc3ccc(Cl)cc3)c(=O)c3ccccc32)c1
c1ccc(Cn2nnnc2C(c2ccccc2)N2CCN(c3nc4ccccc4s3)CC2)cc1 (configuration not stated)
CCOC(=O)c1nn(-c2ccc(OCC)cc2)c2nc(CC(C)C)c(C#N)c(=O)n12
Cc1nc2ccc(S(=O)(=O)NC(CC(C)C)C(=O)NCc3ccc(Cl)cc3)cc2s1 (configuration not stated)
CCOc1ccc(S(=O)(=O)NCc2nc3cccnc3n2Cc2ccccc2OC)cc1
Cc1cccc(C)c1NC(=O)C(c1ccnc2ccccc12)n1c(=O)c(-c2ccco2)nc2ccccc21 (configuration not stated)
Cc1cccc(NC(=O)CN(CC2CCCO2)C(=O)c2cc(S(=O)(=O)N(C)C)ccc2F)c1C (configuration not stated)
CC(=O)/C(N=Nc1cccc(C(F)(F)F)c1)=C(\C)O
COc1ccc(NC(=S)NC(C)C(c2ccccc2)N2CCOCC2)cc1 (configuration not stated)
CCOc1ccc(NC(=O)Nc2cc3c(cc2N2CCCCC2)n(C)c(=O)n3C)cc1
CCOc1ccc2nc(N3CCCC(C(=O)N4CCN(CC)CC4)C3)sc2c1 (configuration not stated)
COc1ccc(C2C(C(=O)Nc3cccnc3)=C(C)Nc3nc(SCc4ccccc4)nn32)cc1 (configuration not stated)
COc1ccc(C(C)(C)C)cc1NC(=O)Cn1cnnn1
COc1ccc(C)cc1NC(=O)C1CCCN(S(=O)(=O)c2cccc3cccnc23)C1 (configuration not stated)

Potency, active:
CN(C)CCCNC(=S)N1CCC(C(=O)c2ccc(Cl)cc2)CC1 2 µM
Cc1ccc(-c2noc(CN(C(=O)CCCCCN3C(=O)c4ccccc4C3=O)C(C)C)n2)cc1 6.31 µM

Potency, inconclusive:
COc1ccc(C(=O)C2CCCN(Cc3cccc4c3OCO4)C2)cc1OC (configuration not stated) 22.4 µM [inhibitor, partial curve, poor fit]
CCCCN1CC(N2CCN(Cc3ccccc3)CC2)CS1(=O)=O (configuration not stated) 6.31 µM [inhibitor, partial curve, poor fit]
CN(C)CCCN(C(=O)c1ccc(S(=O)(=O)N(C)C2CCCCC2)cc1)c1nc2ccc(Br)cc2s1 11.2 µM [inhibitor, partial curve, poor fit]
COc1ccc(C(C[N+](=O)[O-])c2c(C)cc3ccccn23)c(OC)c1 (configuration not stated) 22.4 µM [inhibitor, single point]
C=CCNC(=S)N/N=C/c1cccc([N+](=O)[O-])c1 28.2 µM [inhibitor, single point]
O=C(CN(C(=O)c1csnn1)c1cccc(C(F)(F)F)c1)NCCc1ccccc1 28.2 µM [inhibitor, single point]
CCOc1ccccc1-c1nc(-c2ccc(NC(=O)c3ccc(Br)o3)cc2)no1 8.91 µM [inhibitor, partial curve]
Cc1[nH]c2ccccc2c1CCN(Cc1cccnc1)C(=S)Nc1cccc(F)c1 11.2 µM [inhibitor, single point]
O=C(COc1cccc2ccccc12)Nc1ccc(Cl)cc1C(=O)O 3.98 µM [inhibitor, partial curve, poor fit]
O=c1c(Cc2ccc(F)cc2)c(O)ccn1Cc1ccc(Cl)cc1Cl 31.6 µM [inhibitor, single point]
COc1ccc(/C=C/C(=O)Oc2ccc(C)c(C)c2)cc1OC 28.2 µM [inhibitor, single point]
CC(CC(=O)NCCc1ccc(F)cc1)c1ccccc1 (configuration not stated) 22.4 µM [inhibitor, partial curve, poor fit]
CCc1nc(N)nc(N)c1-c1ccc(Cl)c([N+](=O)[O-])c1 0.794 µM [inhibitor, full curve, poor fit]
COc1ccc(-c2sc3cc(OC)c(OC)cc3c2C#CC2(O)CCCCC2)cc1 10 µM [inhibitor, single point]
CC1(c2ccccc2)NC(=O)N(CC(=O)Nc2cccc(/C=C/c3ccccn3)c2)C1=O (configuration not stated) 20 µM [inhibitor, single point]
COc1ccc(C(C(O)C(=O)c2c[nH]c3ccccc23)N2CCN(c3ccc(OC)cc3)CC2)cc1 (configuration not stated) 20 µM [inhibitor, single point]
Cc1cc(C(=O)CSc2nnc(-c3cccs3)o2)c(C)n1-c1ccccc1 22.4 µM [inhibitor, single point]
Cc1ccc(C)c(S(=O)(=O)N2CCN(C(=O)Cc3sc(C)nc3-c3ccc(F)cc3)CC2)c1 28.2 µM [inhibitor, single point]
N#Cc1cc2c(nc1SCC(=O)Nc1nccs1)CCCCC2 8.91 µM [inhibitor, single point]
CCCc1nc2ccccc2c(=O)n1CCc1ccccc1 10 µM [inhibitor, partial curve, poor fit]
CC1CCC/C(=N\NC(=S)NCc2ccccc2)C1 (configuration not stated) 28.2 µM [inhibitor, single point]
Cc1ccc(-c2cc(C(=O)NCCCN3CCOCC3)c3ccccc3n2)cc1C 28.2 µM [inhibitor, single point]
Cc1c(C(=O)OC2CCCCCC2)[nH]c2c1C(=O)CC(c1ccccc1)C2 (configuration not stated) 3.98 µM [inhibitor, full curve, poor fit]
CCCCCC(O)(c1ccc(OCC)cc1)C(CN1CCOCC1)c1ccccc1 (configuration not stated) 0.794 µM [inhibitor, full curve, poor fit]
CN(C)CCCN(C(=O)c1ccc(S(=O)(=O)N2CCc3ccccc3C2)cc1)c1nc2ccc(F)cc2s1 12.6 µM [inhibitor, single point]
CC(C)CC(=O)N1CCN(C(=O)c2ccc(-c3ccccc3)cc2)CC1 10 µM [inhibitor, single point]
C=CCc1ccc(OCCOCCOc2cccc3cccnc23)c(OC)c1 12.6 µM [inhibitor, single point]
CC1(C)CC(NC(=O)CC(c2ccccc2)c2ccccc2)CC(C)(C)N1 10 µM [inhibitor, partial curve, poor fit]
Cc1ccc(-c2cc3nccc(-c4cc([N+](=O)[O-])ccc4O)n3n2)cc1 7.08 µM [inhibitor, partial curve, poor fit]
CCN1CCN(c2cc(C)c3cc(NC(=O)/C=C/c4cccc(OC)c4OC)ccc3n2)CC1 20 µM [inhibitor, single point]
COc1cc(/C=N/NC(=O)c2[nH]nc3c2CCc2ccccc2-3)ccc1O 14.1 µM [inhibitor, single point]
CN(Cc1ccccc1)C(=S)NC(=O)C1CCCCC1 10 µM [inhibitor, partial curve]
CCOC(=O)CCCCN(Cc1ccccc1F)S(=O)(=O)c1ccc(F)c(C(=O)Nc2cc(Cl)cc(Cl)c2)c1 11.2 µM [inhibitor, partial curve, poor fit]
COc1ccc(CCC(=O)N2c3ccccc3N=C(c3ccc(C(F)(F)F)cc3)C2C(=O)NC2CCCC2)cc1 (configuration not stated) 7.08 µM [inhibitor, partial curve, poor fit]
COc1ccc(-c2nc(CN3CCCCC3c3nccn3C)c(C)o2)c(C)c1C (configuration not stated) 7.08 µM [inhibitor, partial curve, poor fit]
COC(=O)c1ccc(CSc2nnc(-c3c[nH]c4ccccc34)n2-c2ccccc2)cc1 22.4 µM [inhibitor, single point]
Fc1cccc(Cc2c(-c3cccc(Cl)c3)nc3c4ccccc4ccn23)c1 6.31 µM [inhibitor, partial curve, poor fit]
Cc1c(C(=O)Nc2nc3ccccc3[nH]2)oc2ccccc12 28.2 µM [inhibitor, single point]
Cc1ccc(-c2cc(NC=O)c3ncc(-c4cnn(C)c4)n3c2)cc1 8.91 µM [inhibitor, single point]
Brc1cc(Cc2nnc(-c3ccccc3)o2)c(Br)s1 8.91 µM [inhibitor, partial curve, poor fit]
O=C(NC1CCSc2ccccc21)c1cc(S(=O)(=O)N2CCOCC2)ccc1Cl (configuration not stated) 28.2 µM [inhibitor, single point]
O=C(Nc1ccc(N2CCN(C(=O)c3ccccc3F)CC2)cc1)c1cncc(Br)c1 8.91 µM [inhibitor, partial curve]
Cc1ccc(C)c(N(C(=O)c2ccco2)C(C(=O)NC2CCCC2)c2ccco2)c1 (configuration not stated) 8.91 µM [inhibitor, partial curve, poor fit]
Cc1cc(C(=O)C(C)OC(=O)c2ccc(NC(=O)CC#N)cc2)c(C)n1-c1ccccc1 (configuration not stated) 28.2 µM [inhibitor, single point]
COc1ccc2cc(CN(C(=O)Nc3ccccc3OC)C3CCCC3)c(=O)[nH]c2c1 31.6 µM [inhibitor, partial curve, poor fit]
O=C(NCCN1C(=O)C2C3C=CC(C3)C2C1=O)Nc1ccc(Br)cc1 (configuration not stated) 28.2 µM [inhibitor, single point]

Reference: PubChem BioAssay AID624417 (National Center for Advancing Translational Sciences (NCATS), 2012)
